The RNAGym collection of RNA variant scans (doi:10.7554/elife.90254)
Read counts are not given, so values of variants with three or more changes are uncertain.

B1: LINE1-mini (parent)
chain: GGCAGAGCUCAACACAGCGUGGCAAAGUGGCUGUGGCUAGACUGCC

Variants of: B1
Assay: self-cleavage, relative activity (ratio to wild type); higher = more cleavage; in vitro, sequencing; the parent is a self-cleaving ribozyme

Question: For GGCCGAACUCAACACAGCGUGGCAGAGUGGCUGUGGCUAGACUGCC [A4C G7A A25G], which self-cleavage is on record?
Answer: 0.13

Question: With GGCCCAGCUCAACACAGCGUGGCAAAGGGGCUGUGGCUUGACUGCC [A4C G5C U28G A39U] as the variant, how does the self-cleavage read?
Answer: 0

Question: For GGCCGAGCUCAACACAGCGUGGCAAAGUGGAUGUGGCUAGACUGAC [A4C C31A C45A], which self-cleavage is on record?
Answer: 0.01

Question: With GGCCGAGCUCAACACAGCGUGGCAAAGUGGAUGUGGCUAGACUGUC [A4C C31A C45U] as the variant, how does the self-cleavage read?
Answer: 0.15

Question: Which self-cleavage does the source give for GGCCGAGCUCAACAUAGCGUGGCAAAGUGGCUGUGGCAAGACUGCC [A4C C15U U38A] here?
Answer: 0.03

Question: For GGCCGAGCUCAACACAGCGUGGAAAAGUGGCUGUGUCUAGACUACC [A4C C23A G36U G44A], which self-cleavage is on record?
Answer: 0.14

Question: Which self-cleavage does the source give for GGCCCAGUUCAACACAGCGUGGCAAAGUGGCUGUGGCUAGACUGGC [A4C G5C C8U C45G] here?
Answer: 0.02

Question: For GGCCCAGCUCAACACAGCGUGGCAAAGUAUCUGUGUCUAGGCUGCC [A4C G5C G29A G30U G36U A41G], which self-cleavage is on record?
Answer: 0.19

Question: For GGCCGAGCUCAACACAGCGUGGGAAAGUGGCUGUGGCUAGUCCGCC [A4C C23G A41U U43C], which self-cleavage is on record?
Answer: 0.06

Question: For GGCCGAGCUCAAUACAGUGUGGUAAAGUGGCUGUGGCUAGAGUGCC [A4C C13U C18U C23U C42G], which self-cleavage is on record?
Answer: 0.03

Question: With GGCCGAGCUCAACACAGAGUGGAAAAGUGGCUGGGGCGAGACUGCC [A4C C18A C23A U34G U38G] as the variant, how does the self-cleavage read?
Answer: 0.03

Question: Which self-cleavage does the source give for GGCCGAGCUCAACACAGAGUGGCAAAGUGGCUGCGGCUAGACUGCC [A4C C18A U34C] here?
Answer: 0.02

Question: With GGCCGAGCUCAACACAGAGGGACAAAGUGGCUGUGGCUAGACUGCC [A4C C18A U20G G22A] as the variant, how does the self-cleavage read?
Answer: 0.03

Question: Which self-cleavage does the source give for GGCCCAGCUCUACACAGCGUGGCAAAGUUGCUGUGGCUAGACUGCC [A4C G5C A11U G29U] here?
Answer: 0.02

Question: With GGCCUACCUCAACACAGCGUGUCAAAGUGUCUGAGGCUAGACUGCU [A4C G5U G7C G22U G30U U34A C46U] as the variant, how does the self-cleavage read?
Answer: 0.01

Question: With GGCCCAGCUCAACACAGCGGGGCAAAGUGUCUGUUGCUAGACUGCC [A4C G5C U20G G30U G35U] as the variant, how does the self-cleavage read?
Answer: 0

Question: Which self-cleavage does the source give for GGCCGAGCUCAACAUAGCGUGGCAAAGUGGCUGCGGCUAGACUGCC [A4C C15U U34C] here?
Answer: 0.04

Question: For GGCCGAGCUCAAUACAGCGUGGUAAAGUGGCUGUGGGUAGACUGCC [A4C C13U C23U C37G], which self-cleavage is on record?
Answer: 0.05

Question: With GGCCGAACUCAACACAGCGUGGCAAGGUGGCUUUGGCUAGACUGCC [A4C G7A A26G G33U] as the variant, how does the self-cleavage read?
Answer: 0.06

Question: For GGCCAAGCUCAACAUAGCGAGGCUAAGUGGCUGUGGCUAGACUGCC [A4C G5A C15U U20A A24U], which self-cleavage is on record?
Answer: 0.03

Question: For GGCCGAGCUCAACAAAGCGUGGCAAAAUGGCUGUGGCUAGAGUGCC [A4C C15A G27A C42G], which self-cleavage is on record?
Answer: 0.08

Question: For GGCCUAGCACAACCCAACGUCGCAAAGUGGCUGUGGCUAGACUUCC [A4C G5U U9A A14C G17A G21C G44U], which self-cleavage is on record?
Answer: 0.02

Question: With GGCCUAGCUCAACACAGCGUGGCAAAGUAGCUGUGGCUAGACUGCC [A4C G5U G29A] as the variant, how does the self-cleavage read?
Answer: 0.11

Question: Which self-cleavage does the source give for GGCCCAGCUCAACACAGCGUGGCAAAGUGGCUGCGGCUAACCUGCC [A4C G5C U34C G40A A41C] here?
Answer: 0.04

Question: Which self-cleavage does the source give for GGCCGAGCUCAACAGAGCGUGGCAAAGUGGCUGUGGCUUGACUGCC [A4C C15G A39U] here?
Answer: 0

Question: For GGCCAAGCUCAACACAGGGUGGCAAAGUGGCUGUGGCUAGACUGCC [A4C G5A C18G], which self-cleavage is on record?
Answer: 0.1

Question: For GGCCGAGCUCAACACAGUGUGGCAAAGUGGCUGUGGCUAGACUUUC [A4C C18U G44U C45U], which self-cleavage is on record?
Answer: 0.06

Question: With GGCCUAGCUCAACAAAGCGUGGCAAAGUGGCUGUGGCUACACUGCC [A4C G5U C15A G40C] as the variant, how does the self-cleavage read?
Answer: 0.04

Question: With GGCCAAGCUCAACACAGCGUGGCAAAGAGGCUGUGGCUAGACUGCC [A4C G5A U28A] as the variant, how does the self-cleavage read?
Answer: 0.03

Question: With GGCCGAGCUCAACACAGCGUGGCAAAGUGGCUGUGGGUCGACUGCC [A4C C37G A39C] as the variant, how does the self-cleavage read?
Answer: 0.07

Question: For GGCCGAGCUCAAUACAGCGUGGCAAUGUGGCUGUGGCUAGACUGCC [A4C C13U A26U], which self-cleavage is on record?
Answer: 0.05

Question: Which self-cleavage does the source give for GGCCGAGCUCAAGACAGCGUGGCAAAAUGGCUGUGGCUAUACUGCC [A4C C13G G27A G40U] here?
Answer: 0.18

Question: With GGCCGAGCUCAACACAGCGUGGUAAAGUGGGUGUGGAUAGACUGCC [A4C C23U C31G C37A] as the variant, how does the self-cleavage read?
Answer: 0.12

Question: Which self-cleavage does the source give for GGCCUGGCACAACACAGCGUGGCAAAGUGGCUGUGUCUAGACUGCC [A4C G5U A6G U9A G36U] here?
Answer: 0.09

Question: Which self-cleavage does the source give for GGCCGAGCUCAACACAGCGUGGCAAAGUGGAUGCGGCUAGACAGCC [A4C C31A U34C U43A] here?
Answer: 0.03

Question: With GGCCCAGCUCAACACAGCGUGGCAAAGUGACUGUGGCUAGGCUGGC [A4C G5C G30A A41G C45G] as the variant, how does the self-cleavage read?
Answer: 0.04

Question: For GGCCGAGCUCAACACAGGGUGGCAAAGUGGCUGUUGCUAGCCUGCC [A4C C18G G35U A41C], which self-cleavage is on record?
Answer: 0.02

Question: With GGCCCAGCUCAAAACAGUGUGGCAAUGUGGCUGUGGCGAGACUGCC [A4C G5C C13A C18U A26U U38G] as the variant, how does the self-cleavage read?
Answer: 0.04

Question: For GGCCGAGCUCAACAUAGCGUGGCAAAGUGGCUUUGGUUAAACUGCC [A4C C15U G33U C37U G40A], which self-cleavage is on record?
Answer: 0.01

Question: For GGCCUAGAUCAACACAGCGUGGCAAAGUGGCUGUGGCUAGACAGCC [A4C G5U C8A U43A], which self-cleavage is on record?
Answer: 0.11

Question: With GGCCGAGCUCAACAGAGCGUCGCGAAGUGGCUGUGGCUAGCCUGCC [A4C C15G G21C A24G A41C] as the variant, how does the self-cleavage read?
Answer: 0.15

Question: With GGCCAAGCUCAACACAUCGUGGCAAAGUGGCUGUGCCUAGACGGCC [A4C G5A G17U G36C U43G] as the variant, how does the self-cleavage read?
Answer: 0.01

Question: With GGCCUAGCACAACCCAGCGUGGCAAAGUGGCUGUGGCUAGACUGCC [A4C G5U U9A A14C] as the variant, how does the self-cleavage read?
Answer: 0.05

Question: For GGCCGAGCUCAACAUAGCGUAGCAAAGUGGCUGCGUCUUGACUGCC [A4C C15U G21A U34C G36U A39U], which self-cleavage is on record?
Answer: 0.13

Question: With GGCCGAGCUCAACACAGCGUGGGAAAGUGGCUGUGGCCAGACUGCU [A4C C23G U38C C46U] as the variant, how does the self-cleavage read?
Answer: 0.06

Question: With GGCCGAGCUCAAUACAGCCUGGGAAAGUGGCUGUGGCUAGACUGCC [A4C C13U G19C C23G] as the variant, how does the self-cleavage read?
Answer: 0.07

Question: With GGCCUAGCUCAACACAGCGUGGCUAAGUGCGUGUGGCUAGACUGCC [A4C G5U A24U G30C C31G] as the variant, how does the self-cleavage read?
Answer: 0.05

Question: With GGCCGAGCUCAACACAGCGUGGCAAAGUGGCUGUGGCUAGAAUGAU [A4C C42A C45A C46U] as the variant, how does the self-cleavage read?
Answer: 0.15

Question: For GGCCGAGCUCAACACAGAGUGGCCUAGUGGCUGUGGCUAGACUGCC [A4C C18A A24C A25U], which self-cleavage is on record?
Answer: 0.02

Question: With GGCCGAGCUCAACAGAGCGUAGCAAAGUGGCUGUAGCUAGACUGCC [A4C C15G G21A G35A] as the variant, how does the self-cleavage read?
Answer: 0.03

Question: For GGCCGAGCUCAACACAGCGUGGCAAAGUGGCUGUGGGUAGACUGCU [A4C C37G C46U], which self-cleavage is on record?
Answer: 0.12

Question: For GGCCAAGCUCAACACAGCGUGGCAAAGUGGCUGUGGCUAGACUGUC [A4C G5A C45U], which self-cleavage is on record?
Answer: 0.05

Question: For GGCCCUGCUCAACACAGCGUGGCAAAGUGGCUGUGGCUAGACUGCC [A4C G5C A6U], which self-cleavage is on record?
Answer: 0.04

Question: Which self-cleavage does the source give for GGCCGAGCUCAACACAGAGUGGCAAAGUGGCUGUGGCUAGACUGAC [A4C C18A C45A] here?
Answer: 0.01

Question: For GGCCGAGCUCAACACAGCGUGGAAAACUGGCUGUGGCUAGACUGCC [A4C C23A G27C], which self-cleavage is on record?
Answer: 0.03

Question: Which self-cleavage does the source give for GGCCGAACUCAACCCAGCUUGGAAGAGUGGCUGUGGAUAGACUGCC [A4C G7A A14C G19U C23A A25G C37A] here?
Answer: 0.05
